# The list shows a part of the results.
# B1: Threefoil (Haloarcula marismortui) (protein)
# chain: GSSHHHHHHHHHHSSGLVPRGSHMGDGYYKLVARHSGKALDVENASTSDGANVIQYSYSGGDNQQWRLVDLGDGYYKLVARHSGKALDVENASTSDGANVIQYSYSGGDNQQWRLVDLGDGYYKLVARHSGKALDVENASTSDGANVIQYSYSGGDNQQWRLVDL
# Tests used:
# Assay in all cases: glycan array binding signal (z-score within array); higher = stronger binding
# Settings in all cases: glycan notation: IUPAC condensed, linker removed
# [1] = target: Gal(b1-4)GlcNAc(b1-3)Gal(b1-4)GlcNAc(b1-3)Gal(b1-4)GlcNAc(b1-3)Gal(b1-4)GlcNAc(b1-2)Man(a1-3)[Gal(b1-4)GlcNAc(b1-3)Gal(b1-4)GlcNAc(b1-3)Gal(b1-4)GlcNAc(b1-3)Gal(b1-4)GlcNAc(b1-2)Man(a1-6)]Man(b1-4)GlcNAc(b1-4)GlcNAc
# How it was run: (§1)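 Glycan array data came from 3228 arrays in the Consortium for Functional Glycomics database, and only arrays with an available protein sequence were kept. Glycan names were put into IUPAC-condensed notation, and columns mapping to the same glycan were averaged. The binding signal is a within-array Z-score, averaged across arrays of one protein sequence run at different concentrations or buffers and across linkers. A negative Z-score can be read as non-binding.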
# [2] = target: Gal(b1-4)GlcNAc(b1-3)Gal(b1-4)GlcNAc(b1-3)Gal(b1-4)GlcNAc(b1-3)Gal(b1-4)GlcNAc(b1-2)Man(a1-3)[Gal(b1-4)GlcNAc(b1-3)Gal(b1-4)GlcNAc(b1-3)Gal(b1-4)GlcNAc(b1-3)Gal(b1-4)GlcNAc(b1-2)Man(a1-6)]Man(b1-4)GlcNAc(b1-4)[Fuc(a1-6)]GlcNAc
# How it was run: as §1
# [3] = target: Gal(b1-4)GlcNAc(b1-3)Gal(b1-4)GlcNAc(b1-3)Gal(b1-4)GlcNAc(b1-3)Gal(b1-4)GlcNAc(b1-2)[Gal(b1-4)GlcNAc(b1-3)Gal(b1-4)GlcNAc(b1-3)Gal(b1-4)GlcNAc(b1-3)Gal(b1-4)GlcNAc(b1-6)]Man(a1-6)[Gal(b1-4)GlcNAc(b1-3)Gal(b1-4)GlcNAc(b1-3)Gal(b1-4)GlcNAc(b1-3)Gal(b1-4)GlcNAc(b1-2)Man(a1-3)]Man(b1-4)GlcNAc(b1-4)[Fuc(a1-6)]GlcNAc
# How it was run: as §1
# [4] = target: Gal(b1-4)GlcNAc(b1-3)Gal(b1-4)GlcNAc(b1-3)Gal(b1-4)GlcNAc(b1-3)Gal(b1-4)GlcNAc(b1-3)Gal(b1-4)GlcNAc(b1-2)Man(a1-3)[Gal(b1-4)GlcNAc(b1-3)Gal(b1-4)GlcNAc(b1-3)Gal(b1-4)GlcNAc(b1-3)Gal(b1-4)GlcNAc(b1-3)Gal(b1-4)GlcNAc(b1-2)Man(a1-6)]Man(b1-4)GlcNAc(b1-4)GlcNAc
# How it was run: as §1
# [5] = target: Gal(b1-4)GlcNAc(b1-3)Gal(b1-4)GlcNAc(b1-3)Gal(b1-4)GlcNAc(b1-3)Gal(b1-4)GlcNAc(b1-3)Gal(b1-4)GlcNAc(b1-2)Man(a1-3)[Gal(b1-4)GlcNAc(b1-3)Gal(b1-4)GlcNAc(b1-3)Gal(b1-4)GlcNAc(b1-3)Gal(b1-4)GlcNAc(b1-3)Gal(b1-4)GlcNAc(b1-2)Man(a1-6)]Man(b1-4)GlcNAc(b1-4)[Fuc(a1-6)]GlcNAc
# How it was run: as §1
# [6] = target: Gal(b1-4)GlcNAc(b1-3)Gal(b1-4)GlcNAc(b1-3)Gal(b1-4)GlcNAc(b1-3)Gal(b1-4)GlcNAc(b1-3)Gal(b1-4)GlcNAc(b1-2)[Gal(b1-4)GlcNAc(b1-3)Gal(b1-4)GlcNAc(b1-3)Gal(b1-4)GlcNAc(b1-3)Gal(b1-4)GlcNAc(b1-3)Gal(b1-4)GlcNAc(b1-6)]Man(a1-6)[Gal(b1-4)GlcNAc(b1-3)Gal(b1-4)GlcNAc(b1-3)Gal(b1-4)GlcNAc(b1-3)Gal(b1-4)GlcNAc(b1-3)Gal(b1-4)GlcNAc(b1-2)Man(a1-3)]Man(b1-4)GlcNAc(b1-4)[Fuc(a1-6)]GlcNAc
# How it was run: as §1
# [7] = target: Gal(b1-4)GlcNAc(b1-3)Gal(b1-4)GlcNAc(b1-3)Gal(b1-4)GlcNAc(b1-3)Gal(b1-4)GlcNAc(b1-3)Gal(b1-4)GlcNAc(b1-3)Gal(b1-4)GlcNAc(b1-2)Man(a1-3)[Gal(b1-4)GlcNAc(b1-3)Gal(b1-4)GlcNAc(b1-3)Gal(b1-4)GlcNAc(b1-3)Gal(b1-4)GlcNAc(b1-3)Gal(b1-4)GlcNAc(b1-3)Gal(b1-4)GlcNAc(b1-2)Man(a1-6)]Man(b1-4)GlcNAc(b1-4)GlcNAc
# How it was run: as §1
# [8] = target: Gal(b1-4)GlcNAc(b1-3)Gal(b1-4)GlcNAc(b1-3)GalNAc
# How it was run: as §1
# [9] = target: Gal(b1-4)GlcNAc(b1-3)Gal(b1-4)GlcNAc(b1-3)[Gal(b1-4)GlcNAc(b1-3)Gal(b1-4)GlcNAc(b1-6)]GalNAc
# How it was run: as §1
# [10] = target: Gal(b1-4)GlcNAc(b1-3)Gal(b1-4)GlcNAc(b1-6)[Gal(b1-3)]GalNAc
# How it was run: as §1
# [11] = target: Gal(b1-4)GlcNAc(b1-3)Gal(b1-4)[Fuc(a1-3)]GlcNAc(b1-3)Gal(b1-4)[Fuc(a1-3)]GlcNAc
# How it was run: as §1
# [12] = target: Gal(b1-4)GlcNAc(b1-3)GalNAc
# How it was run: as §1
# [13] = target: Gal(b1-4)GlcNAc(b1-3)[Fuc(a1-3)GlcNAc(b1-6)]Gal(b1-4)Glc
# How it was run: as §1
# [14] = target: Gal(b1-4)GlcNAc(b1-3)[Gal(b1-4)GlcNAc(b1-6)]Gal(b1-4)GlcNAc
# How it was run: as §1
# [15] = target: Gal(b1-4)GlcNAc(b1-3)[GlcNAc(b1-6)]Gal(b1-4)GlcNAc
# How it was run: as §1
# [16] = target: Gal(b1-4)GlcNAc(b1-6)Gal(b1-4)GlcNAc
# How it was run: as §1
# [17] = target: Gal(b1-4)GlcNAc(b1-6)GalNAc
# How it was run: as §1
# [18] = target: Gal(b1-4)GlcNAc(b1-6)[Gal(b1-3)]GalNAc
# How it was run: as §1
# [19] = target: Gal(b1-4)GlcNAc(b1-6)[Gal(b1-4)GlcNAc(b1-3)]GalNAc
# How it was run: as §1
# Gal(b1-4)GlcNAc6P = target: Gal(b1-4)GlcNAc6P
# How it was run: as §1
# Gal(b1-6)Gal = target: Gal(b1-6)Gal
# How it was run: as §1
# Gal3S(b1-3)GalNAc = target: Gal3S(b1-3)GalNAc
# How it was run: as §1
# Gal3S(b1-3)GlcNAc = target: Gal3S(b1-3)GlcNAc
# How it was run: as §1
binder,measurement,setting,value
B1,glycan array binding signal (z-score),[1],2.81
same,glycan array binding signal (z-score),[2],3.74
same,glycan array binding signal (z-score),[3],7.31
same,glycan array binding signal (z-score),[4],2.57
same,glycan array binding signal (z-score),[5],2.83
same,glycan array binding signal (z-score),[6],3.49
same,glycan array binding signal (z-score),[7],0.376
same,glycan array binding signal (z-score),[8],0.08
same,glycan array binding signal (z-score),[9],0.065
same,glycan array binding signal (z-score),[10],-0.066
same,glycan array binding signal (z-score),[11],-0.029
same,glycan array binding signal (z-score),[12],-0.171
same,glycan array binding signal (z-score),[13],3.85
same,glycan array binding signal (z-score),[14],1.36
same,glycan array binding signal (z-score),[15],0.055
same,glycan array binding signal (z-score),[16],0.046
same,glycan array binding signal (z-score),[17],-0.136
same,glycan array binding signal (z-score),[18],0.011
same,glycan array binding signal (z-score),[19],0.738
same,glycan array binding signal (z-score),Gal(b1-4)GlcNAc6P,-0.167
same,glycan array binding signal (z-score),Gal(b1-6)Gal,-0.053
same,glycan array binding signal (z-score),Gal3S(b1-3)GalNAc,-0.221
same,glycan array binding signal (z-score),Gal3S(b1-3)GlcNAc,-0.239

# From the supplement of paper PMC8728848
